From US20180030098A1 (NAVIGO PROTEINS, published 2018)
Positions count from the first letter of the chain named. Blank lines part the entries; values can stand above or below the binder they belong to.

Columns and labels:
[1] = biological target: T1, Recombinant human EGFR-Fc Chimera (R&D Systems, catalog no. 344-ER-050) (human, UniProt P00533 25-645); experiment: SPR (Biacore) on immobilised hEGFR-Fc
T1 construct: range 1-645; Bought reagent; Immobilised on the CM5 chip for SPR; also called hEGFR-Fc; not shown: Fc region of human IgG1, fused at the C-terminus

[2] = biological target: T1, Recombinant human EGFR-Fc Chimera (R&D …); experiment: SPR (Biacore 3000), immobilised EGFR-Fc
[3] = biological target: T1, Recombinant human EGFR-Fc Chimera (R&D …); experiment: SPR (Biacore) on immobilised hEGFR-Fc; remark: listed apart in the source
[4] = biological target: T2, human EGFR expressed on cells (human, UniProt P00533 25-1210); experiment: immunocytochemistry on A431 cells
T2 construct: whole, on cells; One entry for EGFR on cells: exogenous in CHO-K1, endogenous in A549, A431 and MDA-MB-231; The cell is named under assay in each row; also called cellular EGFR; surface-exposed EGFR

- Kd [1]: 5.7 µM
B1: Affilin 138840 (designed binder)
chain: MVIWVHTLTGKTITLEVEPSDTIENVKAKIQDKEGIPPDQQRLIWAGKQLEDGRTLSDYNINFKLSLHLVLRLRAAGIGMQIFVHTQTGKTITLEVEPSDTIENVKAKIQDKEGIPPDQQRLIWAGKQLEDGRTLSDYNIGWQAPLHLVLRLRAA
notes: Affilin of two ubiquitin moieties, without PDI motif

- Kd [2]: 256 nM
- koff [2]: 0.00102 s⁻¹
- kon [2]: 3980 M⁻¹ s⁻¹
- Kd [3]: 175 nM
B2: Affilin 139791 (designed binder)
chain: MQIFVKTLTPWRGYDGKTITLEVEPSDTIENVKAKIQDKEGIPPDQQRLIWAGKQLEDGRTLSDYNIRRVDVLHLVLRLRAA
notes: Ubiquitin mutein, cartridge (PWRGYD)RRVDV; Strep-tag detection

- binding result [4]: binds
B3: Affilin 139820 (designed binder)
chain: B2 chain with R12Y, I29T, R68T, R69T, V72I
